Laboratory results from the supplement of paper PMC3334620.
In all, about 33,000 sequences were measured (“E-score (-0.5 to 0.5)”: median about -0.01, highest 2% from about 0.26 on). This is one part of the list.

Target: Ste12 (UniProt P13574)
Assay: PBM E-score (8-mer binding enrichment) (E-score (-0.5 to 0.5)); higher = stronger / more preferred TF binding; most listed sequences are background and not binding sites
Conditions: protein concentration: 200 nM; construct: GST-DNA-binding domain
Outline: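 GST-tagged yeast TFs (full-length or DNA-binding domain) were made by PURExpress in vitro transcription/translation and applied at about 100-200 nM to universal all-10-mer Agilent arrays. The arrays were made double-stranded by primer extension, on fresh or once-stripped slides. Bound protein was detected with fluorescent anti-GST, and scans were normalised with masliner. Each ungapped eight-base word, pooled with its reverse complement, received an E-score (modified Wilcoxon-Mann-Whitney statistic) from the Universal PBM Analysis Suite.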

Row | Sequence | PBM E-score
1 | CCGGCCCG | 0.00367
2 | GGTATACA | -0.0232
3 | CCGCCTCC | -0.123
4 | GCACCACA | 0.0251
5 | TAACGAGA | 0.00312
6 | AGCACCAG | -0.0865
7 | AAAACCAT | 0.158
8 | AGATGTGC | -0.154
9 | TTATTGAA | 0.123
10 | CGGTGGCA | -0.148
11 | CGACCTTA | 0.111
12 | AAGTTCTA | -0.064
13 | AATAGGTA | 0.0275
14 | CAATTCTA | 0.167
15 | ACCTGCAA | -0.0499
16 | CGCCAAGA | -0.0545
17 | ATACATGA | 0.169
18 | GCCGCTAA | -0.00666
19 | AGCTGTAC | -0.298
20 | ATTCATGG | 0.0355
21 | CATTGAAA | 0.247
22 | CCCATGGA | -0.0521
23 | GAGTCACC | -0.286
24 | CGCTTGTA | 0.156
25 | AAAGGGAG | -0.0327

Row | Sequence | PBM E-score
26 | CTATTGTA | 0.00583
27 | ACCTAGGA | 0.0531
28 | GCCGGCAA | 0.0276
29 | ACACTGGG | -0.17
30 | ATATCTTA | 0.141
31 | TCATCTCA | 0.197
32 | CCGATGTC | -0.0614
33 | CAGCTAAC | -0.238
34 | ACGCCAGG | -0.121
35 | AACTTACT | -0.117
36 | GGAATGCC | -0.071
37 | CCACTGCC | -0.133
38 | CTCAAGAA | 0.0605
39 | CATGGAAC | -0.045
40 | CTTCTAGC | -0.0568
41 | GGATGAAA | 0.395
42 | GATAGCGC | -0.00959
43 | AGATGGCC | -0.111
44 | ACTACTCG | 0.186
45 | CCGAAGGC | -0.246
46 | ATAACGCG | 0.0416
47 | AACGCAAA | 0.112
48 | GCATTAAA | 0.111
49 | CGGCGTAC | -0.171
50 | AGAAGTGA | -0.0352

Row | Sequence | PBM E-score
51 | ATCTTAGC | -0.177
52 | ACAAAAAT | 0.288
53 | AACACCAT | 0.0806
54 | AACATATT | 0.0908
55 | GGTCATTA | -0.0797
56 | ACGCCGCT | 0.0963
57 | CACCGTGA | 0.0227
58 | ACCCGCAG | 0.0757
59 | AAACCTAC | 0.17
60 | ATGATCAC | -0.0877
61 | ACGCAAGC | -0.203
62 | TCTTCTAA | 0.194
63 | CATAGTCC | -0.238
64 | AGAACCAT | -0.0343
65 | GATCTGCA | -0.0831
66 | TAATTTAA | 0.3
67 | AGCAGTTA | -0.104
68 | AATACCTC | 0.0391
69 | CTTCTCTA | -0.0467
70 | ACTAAGGG | -0.102
71 | AGAGTACC | -0.0568
72 | AAGCCGCC | -0.16
73 | AGAATAGA | 0.0769
74 | ACCAGCAT | 0.118
75 | AGGATACT | -0.202

Row | Sequence | PBM E-score
76 | ACGCATTA | -0.0496
77 | ATTTAGGG | 0.0145
78 | AGAGGGCT | -0.144
79 | AACGTTCT | 0.184
80 | ATGCCATA | -0.077
81 | CCGTCACC | -0.005
82 | ACATCAGG | 0.0338
83 | CGGATGTC | 0.0627
84 | ACGGAAGT | -0.00553
85 | GCTGAATA | 0.0415
86 | AATGGTCA | 0.0979
87 | TCGACAGA | -0.0176
88 | CGCGACCC | -0.0436
89 | TGCTAAAA | -0.0127
90 | CAATTCTG | 0.176
91 | GATCGGCA | -0.0748
92 | AAAAAAGC | 0.143
93 | CACTATCC | -0.0005
94 | CCGATGGC | -0.0702
95 | TAGATCGA | 0.0552
96 | GGGAGAAC | -0.0492
97 | GATTGCTA | -0.106
98 | AGCCCTTG | -0.175
99 | GTGTGAAC | 0.169
100 | AACCCTGT | 0.11

Row | Sequence | PBM E-score
101 | ACTTGCAA | 0.185
102 | AAGGTAAC | 0.0901
103 | TGGGCACA | -0.0238
104 | ATGGGCAA | 0.0141
105 | ATTGTTTG | 0.184
106 | TCAGTTCA | 0.0814
107 | CAGGGACA | -0.142
108 | GTATTTCA | 0.1
109 | AGCTCGGA | -0.0598
110 | CGCACGCA | -0.222
111 | ACGGATTC | 0.0159
112 | TATGCGGA | 0.0873
113 | ATCTACAG | -0.0482
114 | CAATGTGA | 0.117
115 | GAGCTCAC | -0.0841
116 | AGACGGGC | -0.0692
117 | AAGTCTCT | -0.0975
118 | CCTACTTA | -0.00929
119 | ACAGACAA | 0.144
120 | GCTGGCCA | -0.00597
121 | ACCATCCT | -0.131
122 | ACCAAGGT | -0.0737
123 | TCTGTAAA | 0.15
124 | AAATATCG | 0.0668
125 | CGCTGGGA | -0.148

Row | Sequence | PBM E-score
126 | CGTTGTTA | 0.0606
127 | GAGGCGCC | -0.0886
128 | CGAGTACG | -0.163
129 | CAACTACG | -0.0186
130 | TAGGAAGA | -0.204
131 | AGTGTTGG | -0.0688
132 | CACCCCAC | 0.225
133 | AACAGCGT | 0.0391
134 | CGTGACGC | 0.0399
135 | CAAACCCC | -0.0764
136 | AATCAGCT | 0.0669
137 | ACAAAGAA | 0.215
138 | GAATAAGC | -0.0403
139 | GATCGGAA | 0.0696
140 | ATTAACTG | 0.187
141 | GATAATGC | -0.0128
142 | GTCTCCTA | -0.229
143 | CTGAGGCC | -0.243
144 | TGCTAGAA | -0.0323
145 | CAGACACA | 0.139
146 | AGTTGCTA | 0.0735
147 | CTAGGGTC | -0.253
148 | CACGGGCG | 0.00735
149 | AGCCTTGA | -0.174
150 | AGGCACAG | -0.206

Row | Sequence | PBM E-score
151 | ATCGGTAA | 0.16
152 | TCACTCGA | -0.213
153 | CGAATAAA | 0.182
154 | CGAGGCAA | 0.159
155 | ATCGCTAA | -0.0505
156 | GCACACGA | -0.088
157 | CGAGGGCA | 0.0137
158 | AACTCGCC | -0.0534
159 | ACTAGACC | 0.0423
160 | ATCGGTGC | -0.0807
161 | AATCATTC | 0.0594
162 | ACACAACG | 0.128
163 | ATACAAAG | 0.0824
164 | ACTTACCG | 0.105
165 | CACCTGTA | -0.0729
166 | GGAGGCAC | -0.16
167 | AAGCCGTA | 0.0446
168 | AAGGCAGT | -0.0357
169 | AAGGCATA | -0.0705
170 | GTGGGTCA | -0.0954
171 | ACGTACGG | -0.111
172 | ACGCATGG | -0.0495
